Some entries of the source have several records that differ or are many. This list holds those alone. The source may hold further records. Values given together are repeats (runs, samples, wells, individuals or studies).
Assays:
Type in all cases: toxicity, cell-based
HEK-293T = test: Multiplex assay against HEK293T; settings: human, 10 µM, compound concentration 10 uM, number of replicates 2
In short: (§1)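 Cells stained live at seeding with Hoechst33342, BioTracker Green Microtubule Cytoskeleton Dye, MitoTracker Red and Annexin V Alexa Fluor 680 were imaged on a CQ1 microscope at 37°C and 5% CO2 after compound addition. Their classification by CellPathfinder machine-learning gating ran from Hoechst high-intensity objects versus normal cells, to healthy, pyknosed or fragmented nuclei among normal cells, to mitotic or apoptotic among pyknosed cells. Tubulin, mitochondrial-mass and membrane-permeability phenotypes are per cents of healthy-nucleus cells.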

U2OS = test: Multiplex assay against U2OS; settings: human, number of replicates 2; in short: as §1
Fibroblast = test: Multiplex assay against human fibroblast; settings: number of replicates 2; in short: as §1
[1] = 12 h, 1 µM, compound concentration 1 uM
[2] = 12 h, 10 µM, compound concentration 10 uM
[3] = 24 h, 1 µM, compound concentration 1 uM
[4] = 24 h, 10 µM, compound concentration 10 uM
[5] = 48 h, 1 µM, compound concentration 1 uM
[6] = 48 h, 10 µM, compound concentration 10 uM
[7] = 12 h, 0 µM, compound concentration 0 uM
[8] = 24 h, 0 µM, compound concentration 0 uM
[9] = 48 h, 0 µM, compound concentration 0 uM

SMILES: CN(C)CCCNc1ccnc(Nc2cccc(Cl)c2)n1
- Population Apoptotic (%) (HEK-293T; 48 h): 13% and 57%
- Total Cell Count (U2OS; [1]): 245 and 34
- Total Cell Count (U2OS; [2]): 222 and 28
- Total Cell Count (U2OS; [3]): 47 and 325
- Total Cell Count (U2OS; [4]): 257 and 53
- Total Cell Count (U2OS; [5]): 76 and 656
- Population Mitotic Cells (%) (U2OS; [6]): 5% and 26%
- Total Cell Count (U2OS; [6]): 53 and 279

SMILES: COc1cc(C(N)=O)ccc1Nc1ncc2c(n1)N(CCC(C)C)[C@H](C)C(=O)N2C
- Population Membrane Permeable-Phenotype (%) (Fibroblast; [7]): 30% and 9%
- Population Mitotic Cells (%) (Fibroblast; [7]): 12% and 43%
- Population Pyknosed Nuclei (%) (Fibroblast; [8]): 16% and 5%
- Population Fragmented Nuclei (%) (U2OS; [7]): 38% and 12%
- Total Cell Count (U2OS; [7]): 42 and 157
- Population Fragmented Nuclei (%) (U2OS; [1]): 28% and 8%
- Population Mitochondria Different-Phenotype (%) (U2OS; [1]): 21% and 2%
- Population Mitotic Cells (%) (U2OS; [1]): 0% and 38%
- Total Cell Count (U2OS; [1]): 21 and 142
- Total Cell Count (U2OS; [8]): 41 and 163
- Population Fragmented Nuclei (%) (U2OS; [3]): 56% and 17%
- Population Membrane Permeable-Phenotype (%) (U2OS; [3]): 12% and 1%
- Population Mitochondria Different-Phenotype (%) (U2OS; [3]): 25% and 1%
- Population Mitotic Cells (%) (U2OS; [3]): 33% and 5%
- Total Cell Count (U2OS; [3]): 25 and 212
- Population Mitotic Cells (%) (U2OS; [9]): 25% and 4%
- Population Pyknosed Nuclei (%) (U2OS; [9]): 8% and 29%
- Total Cell Count (U2OS; [9]): 49 and 162
- Population Healthy Nuclei (%) (U2OS; [5]): 20% and 61%
- Population Membrane Permeable-Phenotype (%) (U2OS; [5]): 14% and 2%
- Population Mitochondria Different-Phenotype (%) (U2OS; [5]): 14% and 2%
- Total Cell Count (U2OS; [5]): 34 and 304

SMILES: Cc1ccc2c(N)c(C(=O)NC3CCc4cc(N5CC6CCC(C5)N6)ccc4C3)sc2n1.O=CO (stereo not drawn)
- Population Mitotic Cells (%) (HEK-293T; 24 h): 4% and 27%
- Population Mitochondria Different-Phenotype (%) (U2OS; [1]): 0% and 37%
- Population Mitotic Cells (%) (U2OS; [1]): 0% and 48%
- Total Cell Count (U2OS; [1]): 51 and 221
- Population Fragmented Nuclei (%) (U2OS; [2]): 41% and 13%
- Total Cell Count (U2OS; [2]): 55 and 231
- Population Mitochondria Different-Phenotype (%) (U2OS; [3]): 14% and 43%
- Total Cell Count (U2OS; [3]): 49 and 204
- Population Fragmented Nuclei (%) (U2OS; [4]): 41% and 13%
- Population Membrane Permeable-Phenotype (%) (U2OS; [4]): 50% and 9%
- Total Cell Count (U2OS; [4]): 45 and 221
- Total Cell Count (U2OS; [5]): 57 and 215
- Population Fragmented Nuclei (%) (U2OS; [6]): 31% and 6%
- Population Hoechst High Intensity Objects (%) (U2OS; [6]): 4% and 16%
- Population Mitotic Cells (%) (U2OS; [6]): 46% and 12%
- Total Cell Count (U2OS; [6]): 43 and 180

SMILES: CCN(CC)C/C=C/C(=O)Nc1cc2c(Nc3ccc(F)c(Cl)c3)ncnc2cc1OCC1CC1
- Population Mitochondria Different-Phenotype (%) (Fibroblast; [2]): 22% and 7%
- Population Fragmented Nuclei (%) (U2OS; [1]): 20% and 6%
- Total Cell Count (U2OS; [1]): 39 and 151
- Total Cell Count (U2OS; [2]): 43 and 145
- Population Fragmented Nuclei (%) (U2OS; [3]): 24% and 3%
- Total Cell Count (U2OS; [3]): 50 and 193
- Population Fragmented Nuclei (%) (U2OS; [4]): 9% and 41%
- Population Membrane Permeable-Phenotype (%) (U2OS; [4]): 86% and 0%
- Population Mitochondria Different-Phenotype (%) (U2OS; [4]): 73% and 0%
- Population Fragmented Nuclei (%) (U2OS; [5]): 23% and 6%
- Population Mitotic Cells (%) (U2OS; [5]): 15% and 1%
- Total Cell Count (U2OS; [5]): 56 and 249
- Population Fragmented Nuclei (%) (U2OS; [6]): 51% and 5%

SMILES: COC(=O)Nc1nc2c(s1)-c1c(c(-c3cccnc3)nn1-c1ccc(C3(N(C)C)CC3)cc1)CC2.Cl.Cl
- Population Mitotic Cells (%) (Fibroblast; [3]): 39% and 12%
- Population Fragmented Nuclei (%) (U2OS; [1]): 50% and 12%
- Population Membrane Permeable-Phenotype (%) (U2OS; [1]): 22% and 7%
- Total Cell Count (U2OS; [1]): 61 and 204
- Population Healthy Nuclei (%) (U2OS; [2]): 2% and 19%
- Population Fragmented Nuclei (%) (U2OS; [3]): 58% and 8%
- Total Cell Count (U2OS; [3]): 63 and 213
- Population Healthy Nuclei (%) (U2OS; [4]): 2% and 17%
- Population Fragmented Nuclei (%) (U2OS; [5]): 58% and 8%
- Total Cell Count (U2OS; [5]): 67 and 240
- Population Healthy Nuclei (%) (U2OS; [6]): 1% and 12%

SMILES: COc1ccc(F)c(F)c1C(=O)c1cnc(NC2CCN(S(C)(=O)=O)CC2)nc1N [RG-547]
- Population Membrane Permeable-Phenotype (%) (Fibroblast; [5]): 63% and 5%
- Population Tubulin-Different-Phenotype (%) (Fibroblast; [5]): 63% and 5%
- Total Cell Count (Fibroblast; [5]): 26 and 178
- Total Cell Count (U2OS; [1]): 38 and 180
- Total Cell Count (U2OS; [2]): 50 and 181
- Total Cell Count (U2OS; [3]): 36 and 162
- Total Cell Count (U2OS; [4]): 46 and 171
- Total Cell Count (U2OS; [5]): 46 and 197
- Population Membrane Permeable-Phenotype (%) (U2OS; [6]): 58% and 0%
- Population Mitochondria Different-Phenotype (%) (U2OS; [6]): 41% and 0%
- Total Cell Count (U2OS; [6]): 156 and 46

SMILES: CC1=C(C)C(=O)C(C(CCCCCC(=O)O)c2ccccc2)=C(C)C1=O (stereo not drawn) [SERATRODAST]
- Population Pyknosed Nuclei (%) (Fibroblast; [1]): 36% and 8%
- Population Pyknosed Nuclei (%) (Fibroblast; [3]): 31% and 10%
- Population Apoptotic (%) (Fibroblast; [4]): 63% and 14%
- Population Pyknosed Nuclei (%) (Fibroblast; [5]): 25% and 7%
- Total Cell Count (U2OS; [1]): 35 and 265
- Population Fragmented Nuclei (%) (U2OS; [2]): 26% and 3%
- Total Cell Count (U2OS; [2]): 76 and 303
- Total Cell Count (U2OS; [3]): 40 and 395
- Population Fragmented Nuclei (%) (U2OS; [4]): 23% and 4%
- Total Cell Count (U2OS; [4]): 98 and 410
- Total Cell Count (U2OS; [5]): 101 and 857
- Total Cell Count (U2OS; [6]): 150 and 894

Source: ChEMBL document CHEMBL5303300, “EUbOPEN Chemogenomics Library - Multiplex” (2023)
